The subject of this test is OVCAR8. As to the kind of experiment: cell count relative to DMSO vehicle (fold change); OVCAR8 is a high-grade serous ovarian cancer line and CX-5461 an RNA polymerase I inhibitor; higher = more surviving senescent cells (less killing). As to conditions: senescence inducer: CX-5461 3 µM 48 h, then 6 d recovery (CX senescent), exposure time 24 h.

The structures appear in SMILES notation. Structures can show the parent of a compound that is named as a salt. ± gives the standard deviation of the averaged measurements. The list shows a part of the results.

As to `N#CSc1cc(SC#N)c(N)nc1N`, the cell count is, setting by setting: (compound dose 1 µM) 1.09 ± 0.09; (compound dose 5 µM) 1.02 ± 0.042.
For `CCCCc1nc2cc(/C=C/C(=O)NO)ccc2n1CCN(CC)CC` [Pracinostat (SB939)], the cell count is, setting by setting: (compound dose 1 µM) 0.923 ± 0.13; (compound dose 5 µM) 1.06 ± 0.49.
Turning to `COc1c2c(cc3c1-c1c(cc4c(c1OC)OCO4)C[C@H](C)[C@H](C)C3)OCO2` [Schisandrin C], the cell count reads like this: (compound dose 1 µM) 0.986 ± 0.14; (compound dose 5 µM) 0.891 ± 0.18.
The corresponding values for `O=C(/C=C/c1ccc(O)cc1)C(C(=O)/C=C/c1ccc(O)cc1)C(=O)Nc1ccccc1` are 1.11 ± 0.13 and 1.12 ± 0.17.
As to `CS(=O)(=O)c1ncc(Cl)c(C(=O)O)n1`, the cell count came out at 1.13 ± 0.2 (compound dose 1 µM) and 1.21 ± 0.2 (compound dose 5 µM).
On to `CCc1c(C)sc(NC(=S)NC(=O)c2ccc(Cl)cc2)c1C(N)=O`, for which the cell count (compound dose 1 µM) was 0.92 ± 0.24 and the cell count (compound dose 5 µM) stood at 0.94 ± 0.18.
Taken in the same sequence, the figures for `N=C(N)Nc1ccc(C(=O)Oc2ccc3cc(C(=N)N)ccc3c2)cc1` [Nafamostat (mesylate)] were 1.08 ± 0.22 and 1.1 ± 0.17.
For the molecule `NCCN1C(=O)c2cccc3c(Sc4ccc(Br)cc4)ccc(c23)C1=O`, the cell count reads like this: (compound dose 1 µM) 1.13 ± 0.23; (compound dose 5 µM) 1.01 ± 0.16.
The corresponding values for `O=C(O[C@@H]1O[C@@H]2COC(=O)c3cc(O)c(O)c(O)c3-c3c(cc(O)c(O)c3O)C(=O)O[C@H]([C@H]1O)[C@@H]2O)c1cc(O)c(O)c(O)c1` [Corilagin] are 1.08 ± 0.14 and 1.1 ± 0.17.
Taken in the same sequence, the figures for `COC(=O)Nc1ccc(-c2nc(N3CCOCC3)c3cnn(C4CCN(C(=O)OC)CC4)c3n2)cc1` were 1.16 ± 0.24 and 0.973 ± 0.079.
Taken in the same sequence, the figures for `C[C@H](CC(=O)C[C@@H](C)[C@H]1C[C@H](O)[C@@]2(C)C3=C(C(=O)C[C@]12C)[C@@]1(C)CCC(=O)C(C)(C)[C@@H]1C[C@@H]3O)C(=O)O` [Ganoderic acid A] were 1.09 ± 0.091 and 1.15 ± 0.033.
For `COc1ccc2c(c1)-c1nn(CCCN(C)C)c3ccc([N+](=O)[O-])c(c13)N2` [Pyrazoloacridine], the cell count (compound dose 1 µM) worked out at 1.19 ± 0.28 and the cell count (compound dose 5 µM) stood at 1.32 ± 0.21.
For `COc1cc([C@H]2C(C#N)=C(N)Oc3c2ccc(N)c3N)cc(Br)c1OC` [Crolibulin], the cell count is, setting by setting: (compound dose 1 µM) 1.08 ± 0.025; (compound dose 5 µM) 1.11 ± 0.074.
The corresponding values for `CC(C)n1c(/C=C/C(O)CC(O)CC(=O)O)c(-c2ccc(F)cc2)c2ccccc21` (stereo unspecified) [Fluvastatin (sodium)] are 0.729 ± 0.14 and 0.705 ± 0.25.
Taken in the same sequence, the figures for `O=C1CCC[C@@H]2[C@H]3CCC[N+]4([O-])CCC[C@@H](CN12)[C@@H]34` (stereo partly specified) [Oxymatrine] were 1.08 ± 0.25 and 1.123 ± 0.0078.
`Cc1c(C)c2c(c(C)c1O)CCC(C)(C(=O)O)O2` (stereo unspecified): the cell count was 1.12 ± 0.11 (compound dose 1 µM) and 1.11 ± 0.12 (compound dose 5 µM).
On to `CC[C@H](C)C(=O)O[C@H]1C[C@@H](C)C=C2C=C[C@H](C)[C@H](CC[C@@H]3C[C@@H](O)CC(=O)O3)[C@H]21` [Lovastatin], for which the cell count worked out at 0.792 ± 0.17 (compound dose 1 µM) and 0.704 ± 0.13 (compound dose 5 µM).
The corresponding values for `O=c1cc(-c2ccccc2)oc2cc(O)c(O)c(O)c12` are 1.03 ± 0.043 and 1.02 ± 0.23.
Taken in the same sequence, the figures for `CCN(CC)CCCNc1cc2nc3n(c(=O)c2cc1F)CC/C3=C\c1ccc(C(C)C)cc1` were 1.13 ± 0.027 and 1.15 ± 0.31.
On to `O=C1c2ccccc2-c2nc3nnnn3nc21.O=C1c2ccccc2-c2nn3nnnc3nc21`, for which the cell count reads like this: (compound dose 1 µM) 0.202 ± 0.088; (compound dose 5 µM) 0.0855 ± 0.039.
Taken in the same sequence, the figures for `Oc1cc2c(cc1O)CN(C(=S)NCCc1ccc(Cl)cc1)CCC2` [Capsazepine] were 1.01 ± 0.12 and 0.7435 ± 0.0021.
Taken in the same sequence, the figures for `CC(=O)NC1=NN(C(C)=O)C(C)(c2ccccc2)S1` (racemic) [K858 (Racemic)] were 1.13 ± 0.079 and 0.927 ± 0.023.
The corresponding values for `O=C(O)COc1ccccc1C(Nc1ccccn1)c1cc(Cl)c2cccnc2c1O` (stereo unspecified) are 1.08 ± 0.23 and 0.941 ± 0.037.
With `CC(C)CN(CC(=O)N1CCN(CC(OCc2ccc3ccccc3c2)c2ccc(Cl)cc2Cl)CC1)CC(C)C` (stereo unspecified) [LYN-1604 (dihydrochloride)], the cell count reads like this: (compound dose 1 µM) 1.2 ± 0.29; (compound dose 5 µM) 1.03 ± 0.18.
`O=C(O)CCCCC(CCSCc1ccccc1)SCc1ccccc1` (stereo unspecified) [Devimistat]: the cell count (compound dose 1 µM) came out at 1 ± 0.094 and the cell count (compound dose 5 µM) was determined as 1.04 ± 0.069.
For `O=C(O)C1=CO[C@@H](O[C@@H]2O[C@H](CO)[C@@H](O)[C@H](O)[C@H]2O)[C@@H]2C(CO)=CC[C@H]12` [Geniposidic acid], the cell count (compound dose 1 µM) stood at 1.05 ± 0.24 and the cell count (compound dose 5 µM) worked out at 0.994 ± 0.2.
Taken in the same sequence, the figures for `CCCCCNC(=N)N/N=C/c1c[nH]c2ccc(OC)cc12` were 1.145 ± 0.0021 and 1.17 ± 0.068.
Regarding `O=C(CCCCCCC(=O)Nc1ccc(CN[C@H](C(=O)OC2CCCC2)c2ccccc2)cc1)NO` [Tefinostat], the cell count is, setting by setting: (compound dose 1 µM) 1.12 ± 0.061; (compound dose 5 µM) 1.34 ± 0.033.
Taken in the same sequence, the figures for `COc1c(C)c2c(c(O)c1C/C=C(\C)CCC(=O)O)C(=O)OC2` were 1.1 ± 0.026 and 1.12 ± 0.1.
Taken in the same sequence, the figures for `Cc1cc(Cl)ccc1OCCCC(=O)NO` [Droxinostat] were 0.936 ± 0.15 and 1.05 ± 0.17.
As for `O=C(c1ccc(/C=C/c2n[nH]c3ccccc23)cc1)N1CCNCC1`, the cell count by setting is: (compound dose 1 µM) 1.08 ± 0.18; (compound dose 5 µM) 0.934 ± 0.027.
The corresponding values for `C/C(=C\C(=O)Nc1ccccc1C(=O)O)c1ccc2ccccc2c1` are 1.02 ± 0.28 and 1.05 ± 0.15.
With `CNC(=O)[C@@H](c1ccccc1)N1CCc2cc(OC)c(OC)cc2[C@@H]1CCc1ccc(C(F)(F)F)cc1` [Almorexant], the cell count is 1.01 ± 0.17 (compound dose 1 µM) and 1.1 ± 0.27 (compound dose 5 µM).

Source of the values: the supplement of paper PMC12462457.
